“And” between values parts separate entries of the source, which are not always exact repeats. Equal values may be shown once. Among all 410,000 compounds or so, about 5,000 (1.2%) were called active. The inconclusive results got no clear call from the source; some entries with a clear call stand among them for comparison. Calls follow the shape of the dose curve; as a rule, active = well fitted inhibition curve with a large enough effect; inconclusive = small, poorly fitted or top-dose-only effect; inactive = no such curve, though single readings can be large or run the other way. Where the call is inconclusive, the potency comes from a doubtful curve fit.
test: qHTS for Inhibitors of TGF-b; settings: HepG2 CAGA-GFP TGF-b/SMAD3 reporter, GFP fluorescence, 18 h, TGF-beta stimulated, 500 pg/mL final; series mostly up to 46.1 µM; activity, negative = inhibition: at the top concentration; also: nearly all actives have a fitted effect of over 65% in size
Summary of the method: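 TGF-beta reporter screen: HEPG2 CAGA-GFP, 1% FBS, 500 pg/mL TGF-beta final, 18 h; per-cell GFP summed per well; curves fitted and categorized by class.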
% is scaled to controls: 0 for no effect and ±100 for the full control effect; potency is read from the fitted curve at half-maximal effect; tags tell the direction and shape of the fitted curve.

Row | SMILES | Potency | activity, negative = inhibition
1 | CC1(C(=O)NS(=O)(=O)c2ccc(Cl)cc2)CCN1C(=O)CC1CC1 (stereo not drawn) | inconclusive: 3.16 µM [inhibitor, partial curve] | –
2 | COc1ccc(C(=O)NCC(c2ccco2)N2CCc3ccccc32)cc1 (stereo not drawn) | inconclusive: 17.8 µM [inhibitor, partial curve, poor fit] | –
3 | Cc1coc(C)c1C(=O)CC1(O)C(=O)N(CCc2ccccc2)c2ccccc21 (stereo not drawn) | – | inactive: -0.243%
4 | CCCNC(=O)c1ccc(N2CCC3(CC2)CC(c2ccccc2)=NO3)c(NC(=O)Cc2ccc(F)cc2)c1 | inconclusive: 0.631 µM [inhibitor, full curve, poor fit] | –
5 | O=C(NCCSCc1ccc(Cl)cc1)c1cccs1 | – | inactive: 34.3%
6 | CCOC(=O)c1nc(C)nc(Sc2n[nH]c(-c3cc(Cl)cc(Cl)c3)n2)c1C | inconclusive: 14.1 µM [inhibitor, single point] | –
7 | CCc1ccc(C(=O)c2cn(CC(=O)Nc3ccc(F)c(F)c3)c3cc(OC)c(OC)cc3c2=O)cc1 | inconclusive: 5.01 µM [inhibitor, partial curve, poor fit] | –
8 | CC1CCc2sc(NC(=O)c3ccc(N4C(=O)CCC4=O)cc3)c(C(N)=O)c2C1 (stereo not drawn) | inconclusive: 6.31 µM [inhibitor, single point] | –
9 | CCC(=O)NC(=S)Nc1ccc(Cl)cn1 | – | inactive: -2.43%
10 | Cc1cc(Nc2nc3ccccc3nc2Cl)n(-c2ccccc2C)n1 | inconclusive: 35.5 µM [inhibitor, partial curve, poor fit] | –
11 | O=Cc1c(NCc2cccc(F)c2)c2ccccc2[nH]c1=O | – | inactive: 2.03%
12 | C[C@@H]1NC(=O)N(CCCn2ccnc2)C1=O | – | inactive: 23.6%
13 | CC1=NN(C(=O)c2ccc(Cl)cc2)C(O)(c2ccccc2)C1 (stereo not drawn) | inconclusive: 12.6 µM [inhibitor, partial curve, poor fit] | –
14 | COC(=O)c1ccccc1NC(=O)CN1CCC(C(=O)c2ccc3c(c2)OCCO3)CC1 | inconclusive: 22.4 µM [inhibitor, partial curve, poor fit] | –
15 | CC(C)CCNC(=O)c1cccc(Nc2nc3ccccc3n3nnnc23)c1 | inconclusive: 35.5 µM [inhibitor, partial curve, poor fit] | –
16 | Cc1[nH]c2ccccc2c1C(=O)C(=O)N1c2ccccc2CC1C (stereo not drawn) | inconclusive: 0.891 µM [inhibitor, full curve, poor fit] | –
17 | Cc1ccc(NC(=O)c2cc(S(=O)(=O)NCCC3=CCCCC3)ccc2F)cc1F | inconclusive: 17.8 µM [inhibitor, partial curve, poor fit] and inconclusive: 12.6 µM [inhibitor, partial curve, poor fit] | –
18 | Cc1cc(C)c(COCc2cc(/C=N/O)c(C)cc2C)cc1/C=N/O | inconclusive: 8.91 µM [inhibitor, partial curve, poor fit] | –
19 | O=C1NC(=S)N/C1=C\C=C\c1ccccc1 | inconclusive: 0.355 µM [inhibitor, full curve] | –
20 | CCCN(C(=O)c1cc2c(s1)-c1ccccc1OC2)c1ccccc1F | inconclusive: 35.5 µM [inhibitor, single point] | –
21 | O=C(COC(=O)CN1C(=O)c2ccccc2C1=O)Nc1ncc(Cl)cc1Cl | inconclusive: 5.01 µM [inhibitor, full curve, poor fit] | –

Row | SMILES | Potency | activity, negative = inhibition
22 | CC(C)c1c(C(=O)N/N=C/c2ccc(C(F)(F)F)cc2)nnn1-c1nonc1N | inconclusive: 35.5 µM [inhibitor, single point] | –
23 | Cc1cc(C)c(NC(=S)NC(=O)c2c(Cl)c(C)nn2C)c([N+](=O)[O-])c1 | inconclusive: 22.4 µM [inhibitor, single point] | –
24 | CCn1c(=S)sc2c(=O)[nH]c(SCC(=O)Nc3cc(OC)ccc3OC)nc21 | – | inactive: -20.9%
25 | COc1ccc(-c2cc(NC=O)c3ncc(-c4cccc(C(C)=O)c4)n3c2)cc1 | inconclusive: 5.62 µM [inhibitor, full curve] | –
26 | Cc1nc2c(-c3ccccc3)c(C)nn2c(C)c1CCC(=O)NC(C)c1ccccc1 (stereo not drawn) | inconclusive: 14.1 µM [inhibitor, single point] | –
27 | CCCC1=C(C(=O)OCC)C(c2c(C)nn(-c3ccccc3)c2Cl)C(C#N)=C(N)O1 (stereo not drawn) | – | inactive: 0%
28 | COc1ccc(NS(=O)(=O)c2ccc(C(=O)N3CCN(Cc4ccccc4)CC3)cc2)cc1 | – | inactive: 1.97%
29 | Cc1cccc(N2CCN(C(=O)CCN3C(=S)NC(C)(C)CC3C)CC2)c1C (stereo not drawn) | – | inactive: -12.3%
30 | CC(C)CNc1ncnc2c1ncn2[C@H]1CN(Cc2ccc(-c3ccccc3)cc2)C[C@@H](CO)O1 | inconclusive: 14.1 µM [inhibitor, single point] | –
31 | CCC(=O)N1CCc2cc(S(=O)(=O)NCCC(=O)N3CCN(c4cccc(OC)c4)CC3)ccc21 | – | inactive: -11.6%
32 | Cn1cnc([N+](=O)[O-])c1SCCO | – | inactive: 0.0975%
33 | COc1ccc(COc2ccccc2C(=O)NCc2ccccc2)cc1F | inconclusive: 10 µM [inhibitor, partial curve, poor fit] | –
34 | Cc1ccc(Oc2c(C(F)(F)F)oc3c(CN4CCCCC4)c(O)ccc3c2=O)cc1 | inconclusive: 10 µM [inhibitor, partial curve, poor fit] | –
35 | COc1ccc(-c2cc3nc(NCCCN(C)C)n(C)c(=O)c3s2)c(C)c1 | inconclusive: 7.08 µM [inhibitor, partial curve, poor fit] | –
36 | O=C(Nc1ccc(Cl)cc1)C1CCCN(S(=O)(=O)c2ccc3[nH]c(=O)ccc3c2)C1 (stereo not drawn) | inconclusive: 6.31 µM [inhibitor, partial curve, poor fit] | –
37 | COc1c(C)cc(C(=O)C2CCCN(Cc3cccc4nccnc34)C2)cc1C (stereo not drawn) | inconclusive: 22.4 µM [inhibitor, single point] | –
38 | O=[N+]([O-])c1c(NCCCO)cc(N2CCCCCC2)c2nonc12 | inconclusive: 8.91 µM [inhibitor, partial curve, poor fit] | –
39 | CCN(CC)CC(C)CNC(=O)CN1C(=O)CSc2ccc(S(=O)(=O)N3CCOCC3)cc21 (stereo not drawn) | inactive | –
40 | CN(C(=O)C1CCCN(c2ncnc3c2nc2n3CCCCC2)C1)c1ccccc1F (stereo not drawn) | inconclusive: 22.4 µM [inhibitor, single point] | –
41 | COc1ccccc1CNS(=O)(=O)c1ccc2c(c1)NC(=O)C(C)S2 (stereo not drawn) | inconclusive: 20 µM [inhibitor, single point] | –
42 | O=C(CSc1nc(=O)n(CCCN2CCOCC2)c2c1CCCC2)Nc1ccc(F)c(F)c1 | inconclusive: 35.5 µM [inhibitor, single point] | –

Row | SMILES | Potency | activity, negative = inhibition
43 | COc1ccc(CN(C)C(=O)c2ccc(NS(=O)(=O)c3ccc(C)c([N+](=O)[O-])c3)cc2)c(OC)c1OC | inconclusive: 22.4 µM [inhibitor, single point] | –
44 | O=C(Nc1cccc(O)c1)C1CCCN1C(=O)OCc1ccccc1 (stereo not drawn) | inconclusive: 5.62 µM [inhibitor, single point] | –
45 | CC(C)OCCCn1c(SCc2ccccc2C#N)nc2c(sc3ccccc32)c1=O | – | inactive: -28.7%
46 | c1cc2c(cc1C1CCCN1)OCCCO2 (stereo not drawn) | inconclusive: 22.4 µM [inhibitor, single point] | –
47 | CCOc1ccc(/C=C/c2nc(C#N)c(N3CCN(c4ccc(OC)cc4)CC3)o2)cc1 | – | inactive: -13%
48 | CC(=O)c1nn(-c2ccc(Cl)cc2)cc1C(=O)c1ccc(C)cc1 | – | inactive: 30%
49 | Cn1cc(S(=O)(=O)N2CCCCCC2)cc1C(=O)N1CCN(c2ccc(F)cc2)CC1 | inconclusive: 17.8 µM [inhibitor, partial curve, poor fit] | –
50 | O=C(c1ccc(Cl)cc1)c1cccc(O)c1 | inconclusive: 35.5 µM [inhibitor, single point] | –
51 | CCOc1cc(/C=C2/C(=N)N3C(=NC2=O)SN=C3S(C)(=O)=O)ccc1OS(=O)(=O)c1ccccc1 | – | inactive: 0.419%
52 | CC1CCN(C2CC(=O)N(c3ccc(Br)cc3Br)C2=O)CC1 (stereo not drawn) | – | inactive: -7.1%
53 | Cc1ccc(C(=O)CSc2nnc3ccccn23)c(C)c1 | inconclusive: 7.08 µM [inhibitor, full curve, poor fit] | –
54 | CCc1cccc(NC(=O)Nc2ccc3c(c2)N(C)C(=O)c2ccccc2S3)c1 | inconclusive: 35.5 µM [inhibitor, single point] | –
55 | C[C@@H]1CCCCO[C@H](CN(C)Cc2ccc(C(F)(F)F)cc2)[C@H](C)CN([C@@H](C)CO)C(=O)c2cc(NC(=O)Cc3ccccc3)ccc2O1 | inconclusive: 20 µM [inhibitor, single point] | –
56 | Cc1ccc(Cn2c(=O)c3cccnc3n(CC(=O)Nc3cccc(C(F)(F)F)c3)c2=O)cc1 | inconclusive: 5.62 µM [inhibitor, single point] and inconclusive: 35.5 µM [inhibitor, single point] | –
57 | O=C(Nc1ccccc1N1CCCC1)c1cc2ccccc2o1 | inconclusive: 7.08 µM [inhibitor, full curve, poor fit] | –
58 | O=C(COc1ccccc1)NCc1ccc2c(c1)CCN2C(=O)c1ccc(F)cc1 | inconclusive: 0.199 µM [inhibitor, full curve, poor fit] | –
59 | CS(=O)(=O)c1ccc(Nc2nc(C(N)Cc3ccc(F)cc3)cs2)cc1 (stereo not drawn) | inconclusive: 35.5 µM [inhibitor, single point] | –
60 | CSc1nc(N)nc2c1ncn2CC(=O)NCCCN1CCCC1=O | – | inactive: 5.42%
61 | Cc1csc(NC(=O)C2CCN(S(=O)(=O)c3cccs3)CC2)n1 | inconclusive: 8.91 µM [inhibitor, partial curve, poor fit] | –
62 | CCN(c1cccc(C)c1)S(=O)(=O)c1ccc2c3c(cccc13)C(=O)N2 | – | inactive: -15.6%
63 | Cc1cc(OCC(=O)Nc2ccc(-c3nc4cc(Cl)ccc4o3)cc2)cc(C)c1Cl | – | inactive: 12.2%

Reference: PubChem BioAssay AID588855 (National Center for Advancing Translational Sciences (NCATS), 2011)
